# Source: the supplement of paper PMC8728848
# This is one part of the list.
# Legend:
# Assay in all cases: glycan array binding signal (z-score within array); higher = stronger binding
# Settings in all cases: glycan notation: IUPAC condensed, linker removed
# [1] = target: Man(a1-2)Man(a1-3)[Man(a1-2)Man(a1-6)]Man(a1-6)[Man(a1-2)Man(a1-2)Man(a1-3)]Man
# Method in brief: (§1)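 Glycan array data were curated from 3228 arrays in the Consortium for Functional Glycomics database and kept only where the protein sequence was available. Glycan names were converted to IUPAC-condensed notation, and columns mapping to the same glycan were averaged. The binding signal is a within-array Z-score, averaged across arrays of the same protein sequence at different concentrations or buffers and across linkers. Negative Z-scores can be read as non-binding.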
# [2] = target: Man(a1-2)Man(a1-3)[Man(a1-2)Man(a1-6)]Man(a1-6)[Man(a1-2)Man(a1-2)Man(a1-3)]Man(b1-4)GlcNAc(b1-4)GlcNAc
# Method in brief: as §1
# [3] = target: Man(a1-2)Man(a1-3)[Man(a1-6)]Man(a1-6)[Man(a1-2)Man(a1-3)]Man(b1-4)GlcNAc(b1-4)GlcNAc
# Method in brief: as §1
# [4] = target: Man(a1-2)Man(a1-6)[Man(a1-3)]Man(a1-6)[Man(a1-2)Man(a1-2)Man(a1-3)]Man
# Method in brief: as §1
# [5] = target: Man(a1-2)Man(a1-6)[Man(a1-3)]Man(a1-6)[Man(a1-2)Man(a1-2)Man(a1-3)]Man(b1-4)GlcNAc(b1-4)GlcNAc
# Method in brief: as §1
# [6] = target: Man(a1-3)[Man(a1-6)]Man
# Method in brief: as §1
# [7] = target: Man(a1-3)[Man(a1-6)]Man(a1-6)[Man(a1-2)Man(a1-3)]Man(b1-4)GlcNAc(b1-4)GlcNAc
# Method in brief: as §1
# [8] = target: Man(a1-3)[Man(a1-6)]Man(a1-6)[Man(a1-3)]Man
# Method in brief: as §1
# [9] = target: Man(a1-3)[Man(a1-6)]Man(a1-6)[Man(a1-3)]Man(b1-4)GlcNAc(b1-4)GlcNAc
# Method in brief: as §1
# [10] = target: Man(a1-3)[Man(a1-6)]Man(b1-4)GlcNAc(b1-4)GlcNAc
# Method in brief: as §1
# [11] = target: Man(a1-3)[Man(a1-6)]Man(b1-4)GlcNAc(b1-4)[Fuc(a1-6)]GlcNAc
# Method in brief: as §1
# [12] = target: Man(a1-6)Man
# Method in brief: as §1
# [13] = target: Man(b1-4)GlcNAc
# Method in brief: as §1
# [14] = target: MurNAc(b1-4)GlcNAc
# Method in brief: as §1
# [15] = target: Neu5Ac(a2-3)Gal
# Method in brief: as §1
# [16] = target: Neu5Ac(a2-3)Gal(b1-3)GalNAc
# Method in brief: as §1
# [17] = target: Neu5Ac(a2-3)Gal(b1-3)GalNAc(b1-3)Gal(a1-4)Gal(b1-4)Glc
# Method in brief: as §1
# [18] = target: Neu5Ac(a2-3)Gal(b1-3)GalNAc(b1-4)[Neu5Ac(a2-3)]Gal(b1-4)Glc
# Method in brief: as §1
# [19] = target: Neu5Ac(a2-3)Gal(b1-3)GalNAc(b1-4)[Neu5Ac(a2-8)Neu5Ac(a2-3)]Gal(b1-4)Glc
# Method in brief: as §1
# [20] = target: Neu5Ac(a2-3)Gal(b1-3)GalNAc6S
# Method in brief: as §1
# [21] = target: Neu5Ac(a2-3)Gal(b1-3)GlcNAc
# Method in brief: as §1
# [22] = target: Neu5Ac(a2-3)Gal(b1-3)GlcNAc(b1-2)Man
# Method in brief: as §1
# [23] = target: Neu5Ac(a2-3)Gal(b1-3)GlcNAc(b1-2)Man(a1-3)[GlcNAc(b1-4)][Neu5Ac(a2-3)Gal(b1-3)GlcNAc(b1-2)Man(a1-6)]Man(b1-4)GlcNAc(b1-4)GlcNAc
# Method in brief: as §1
# [24] = target: Neu5Ac(a2-3)Gal(b1-3)GlcNAc(b1-2)Man(a1-3)[Neu5Ac(a2-3)Gal(b1-3)GlcNAc(b1-2)Man(a1-6)]Man(b1-4)GlcNAc(b1-4)GlcNAc
# Method in brief: as §1
# [25] = target: Neu5Ac(a2-3)Gal(b1-3)GlcNAc(b1-2)[Neu5Ac(a2-3)Gal(b1-3)GlcNAc(b1-4)]Man(a1-6)[Neu5Ac(a2-3)Gal(b1-3)GlcNAc(b1-2)Man(a1-3)]Man(b1-4)GlcNAc(b1-4)GlcNAc
# Method in brief: as §1
# [26] = target: Neu5Ac(a2-3)Gal(b1-3)GlcNAc(b1-3)Gal(b1-3)GlcNAc
# Method in brief: as §1
# [27] = target: Neu5Ac(a2-3)Gal(b1-3)GlcNAc(b1-3)Gal(b1-4)GlcNAc
# Method in brief: as §1
# [28] = target: Neu5Ac(a2-3)Gal(b1-3)GlcNAc(b1-3)GalNAc
# Method in brief: as §1
# [29] = target: Neu5Ac(a2-3)Gal(b1-3)GlcNAc(b1-4)Gal(b1-4)Glc
# Method in brief: as §1
# [30] = target: Neu5Ac(a2-3)Gal(b1-3)GlcNAc(b1-6)GalNAc
# Method in brief: as §1
# [31] = target: Neu5Ac(a2-3)Gal(b1-3)GlcNAc6S
# Method in brief: as §1
# [32] = target: Neu5Ac(a2-3)Gal(b1-3)[Fuc(a1-4)]GlcNAc
# Method in brief: as §1
# [33] = target: Neu5Ac(a2-3)Gal(b1-3)[Fuc(a1-4)]GlcNAc(b1-3)Gal(b1-3)[Fuc(a1-4)]GlcNAc
# Method in brief: as §1
# [34] = target: Neu5Ac(a2-3)Gal(b1-3)[Fuc(a1-4)]GlcNAc(b1-3)Gal(b1-4)[Fuc(a1-3)]GlcNAc
# Method in brief: as §1
# [35] = target: Neu5Ac(a2-3)Gal(b1-3)[GlcNAc(b1-6)]GalNAc
# Method in brief: as §1
# [36] = target: Neu5Ac(a2-3)Gal(b1-3)[Neu5Ac(a2-6)]GalNAc
# Method in brief: as §1
# [37] = target: Neu5Ac(a2-3)Gal(b1-3)[Neu5Ac(a2-6)]GlcNAc(b1-3)[Fuc(a1-3)[Gal(b1-4)]GlcNAc(b1-6)]Gal(b1-4)Glc
# Method in brief: as §1
# [38] = target: Neu5Ac(a2-3)Gal(b1-3)]Neu5Ac(a2-3)Gal(b1-4)]GlcNAc
# Method in brief: as §1
# [39] = target: Neu5Ac(a2-3)Gal(b1-4)Glc
# Method in brief: as §1
# [40] = target: Neu5Ac(a2-3)Gal(b1-4)GlcNAc
# Method in brief: as §1
# [41] = target: Neu5Ac(a2-3)Gal(b1-4)GlcNAc(b1-2)Man
# Method in brief: as §1
# [42] = target: Neu5Ac(a2-3)Gal(b1-4)GlcNAc(b1-2)Man(a1-3)[GlcNAc(b1-4)][Neu5Ac(a2-3)Gal(b1-4)GlcNAc(b1-2)Man(a1-6)]Man(b1-4)GlcNAc(b1-4)GlcNAc
# Method in brief: as §1
# [43] = target: Neu5Ac(a2-3)Gal(b1-4)GlcNAc(b1-2)Man(a1-3)[Neu5Ac(a2-3)Gal(b1-4)GlcNAc(b1-2)Man(a1-6)]Man(b1-4)GlcNAc(b1-4)GlcNAc
# Method in brief: as §1
# [44] = target: Neu5Ac(a2-3)Gal(b1-4)GlcNAc(b1-2)Man(a1-3)[Neu5Ac(a2-3)Gal(b1-4)GlcNAc(b1-2)Man(a1-6)]Man(b1-4)GlcNAc(b1-4)[Fuc(a1-6)]GlcNAc
# Method in brief: as §1
# [45] = target: Neu5Ac(a2-3)Gal(b1-4)GlcNAc(b1-2)Man(a1-3)[Neu5Ac(a2-6)Gal(b1-4)GlcNAc(b1-2)Man(a1-6)]Man(b1-4)GlcNAc(b1-4)GlcNAc
# Method in brief: as §1
binder,measurement,setting,value
Thrombomodulin (Mus musculus) (protein) ALAKLQPTGSQCVEHECFALFQGPATFLDASQACQRLQGHLMTVRSSVAADVISLLLSQSSMDLGPWIGLQLPQGCDDPVHLGPLRGFQWVTGDNHTSYSRWARPNDQTAPLCGPLCVTVSTATEAAPGEPAWEEKPCETETQGFLCEFYFTASC,glycan array binding signal (z-score),[1],-0.295
same,glycan array binding signal (z-score),[2],-0.148
same,glycan array binding signal (z-score),[3],-0.462
same,glycan array binding signal (z-score),[4],-0.326
same,glycan array binding signal (z-score),[5],-0.299
same,glycan array binding signal (z-score),[6],0.154
same,glycan array binding signal (z-score),[7],-0.141
same,glycan array binding signal (z-score),[8],-0.178
same,glycan array binding signal (z-score),[9],-0.262
same,glycan array binding signal (z-score),[10],-0.349
same,glycan array binding signal (z-score),[11],0.066
same,glycan array binding signal (z-score),[12],0.052
same,glycan array binding signal (z-score),[13],-0.015
same,glycan array binding signal (z-score),[14],-0.27
same,glycan array binding signal (z-score),[15],-0.273
same,glycan array binding signal (z-score),[16],1.07
same,glycan array binding signal (z-score),[17],-0.19
same,glycan array binding signal (z-score),[18],-0.4
same,glycan array binding signal (z-score),[19],-0.298
same,glycan array binding signal (z-score),[20],0.053
same,glycan array binding signal (z-score),[21],-0.018
same,glycan array binding signal (z-score),[22],-0.394
same,glycan array binding signal (z-score),[23],-0.095
same,glycan array binding signal (z-score),[24],0.051
same,glycan array binding signal (z-score),[25],0.106
same,glycan array binding signal (z-score),[26],-0.256
same,glycan array binding signal (z-score),[27],-0.414
same,glycan array binding signal (z-score),[28],-0.354
same,glycan array binding signal (z-score),[29],-0.344
same,glycan array binding signal (z-score),[30],0.614
same,glycan array binding signal (z-score),[31],0.198
same,glycan array binding signal (z-score),[32],0.068
same,glycan array binding signal (z-score),[33],-0.3
same,glycan array binding signal (z-score),[34],0.174
same,glycan array binding signal (z-score),[35],-0.106
same,glycan array binding signal (z-score),[36],-0.197
same,glycan array binding signal (z-score),[37],0.263
same,glycan array binding signal (z-score),[38],-0.012
same,glycan array binding signal (z-score),[39],2.91
same,glycan array binding signal (z-score),[40],-0.09
same,glycan array binding signal (z-score),[41],-0.06
same,glycan array binding signal (z-score),[42],-0.327
same,glycan array binding signal (z-score),[43],-0.348
same,glycan array binding signal (z-score),[44],-0.085
same,glycan array binding signal (z-score),[45],-0.067
